In the antibiotic and cytotoxicity screens of Wong et al. (2023):
Some of the results follow.

System: S. aureus RN4220
Assay: growth inhibition call (relative growth <= 0.2)
Conditions: 50 µM

Growth inhibition call, inactive:
C[C@H]1CN([C@@H](C)CO)C(=O)c2cccc(NC(=O)c3nc4ccccc4s3)c2O[C@H]1CN(C)Cc1ccc(C(F)(F)F)cc1, C[C@H](CO)N1C[C@H](C)[C@H](CN(C)Cc2ccc3c(c2)OCO3)Oc2ccc(NC(=O)Cn3cnnn3)cc2CC1=O, C[C@@H]1CN([C@H](C)CO)C(=O)c2cc(NC(=O)C3CC3)ccc2O[C@H]1CN(C)S(=O)(=O)c1ccccc1, CC(C)NC(=O)N(C)C[C@@H]1OCCCC[C@H](C)Oc2ccc(NC(=O)C3CCCCC3)cc2C(=O)N([C@@H](C)CO)C[C@H]1C, COc1ccc(S(=O)(=O)N(C)C[C@@H]2Oc3ccc(NS(=O)(=O)c4ccc(F)cc4)cc3CC(=O)N([C@H](C)CO)C[C@@H]2C)cc1, O=C1C=C2CC3(O)COc4c(ccc(O)c4O)C3=C2C=C1O (stereo not given), O=C(C[C@@H]1C[C@H]2c3cc(NS(=O)(=O)c4ccc(F)cc4)ccc3O[C@H]2[C@H](CO)O1)NCc1cccc(F)c1, CCNC(=O)C[C@H]1C=C[C@@H](NC(=O)C2CC2)[C@H](CO)O1, C[C@H]1CN([C@@H](C)CO)C(=O)c2cc(C#CCc3ccccc3)cnc2O[C@@H]1CN(C)C(=O)Cc1cccnc1, CC1CCC2(C(=O)O)CCC3(C)C(=CCC4C5(C)CC(O)C(O)C(C)(CO)C5C(O)CC43C)C2C1C (stereo not given)
